Results published in the supplement of paper PMC12645437, “Orthogonal IMiD-Degron Pairs Induce Selective Protein Degradation in Cells” (ACS Chemical Biology, 2025).
This is one part of the list.

molecular target: no compound (DMSO); assay: log2 fold change of degron read counts, EGFP-low vs EGFP+ sorted cells; higher = lower degron-EGFP level without compound (poor expression or instability); settings: compound: DMSO control; 18 h
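Further: jurkat cells carrying a lentiviral library of mutant zinc finger degrons fused to EGFP plus mCherry, mCherry+ cells FACS sorted, degron abundance counted by next-generation sequencing.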

Sequence | log2 fold change of degron read counts
FVCEICGRFFTQKGNLLRHIKL | -1.44
FQCPICGAQFTQKGNLLRHIKL | -0.408
FCCNQCGHSFTQKGNLLRHIKL | -0.639
FLCDQCGAVFTQKGNLLRHIKL | -1.32
FFCEICGHYFTQKGNLLRHIKL | 0.114
FFCPICGHIFTQKGNLLRHIKL | 0.496
FVCEVCGACFTQKGNLLRHIKL | -2.37
FDCPQCGAGFTQKGNLLRHIKL | -1.38
FFCNQCGAQFTQKGNLLRHIKL | -0.161
FHCDQCGAKFTQKGNLLRHIKL | -0.358
FRCNVCGAPFTQKGNLLRHIKL | 0.27
FRCDQCGARFTQKGNLLRHIKL | -1.29
FRCEVCGAWFTQKGNLLRHIKL | -0.117
FECNQCGRKFTQKGNLLRHIKL | -1.89
FCCNQCGRNFTQKGNLLRHIKL | 0.03
FMCNQCGATFTQKGNLLRHIKL | -1.53
FSCPICGANFTQKGNLLRHIKL | -0.0366
FACPVCGAMFTQKGNLLRHIKL | 0.0162
FLCDICGAPFTQKGNLLRHIKL | -0.801
LWCNQCGFGCTQKGNLLRHIKL | 1.67
FICEICGRIFTQKGNLLRHIKL | 0.0282
FNCPQCGAMFTQKGNLLRHIKL | -0.787
FMCEICGRMFTQKGNLLRHIKL | -0.99
FYCDVCGAYFTQKGNLLRHIKL | 0.044
FNCPICGRYFTQKGNLLRHIKL | 0.667

Sequence | log2 fold change of degron read counts
FLCPQCGAYFTQKGNLLRHIKL | -0.178
FLCSVCGHCFTQKGNLLRHIKL | -0.138
FYCPICGRFFTQKGNLLRHIKL | -1.57
FICEICGREFTQKGNLLRHIKL | -2.9
FVCEQCGAFFTQKGNLLRHIKL | 0.00323
FFCDICGADFTQKGNLLRHIKL | -2.46
FECSVCGHQFTQKGNLLRHIKL | -1.64
FECEVCGAYFTQKGNLLRHIKL | -1.01
FHCPQCGAHFTQKGNLLRHIKL | -0.713
FGCEICGHVFTQKGNLLRHIKL | -0.453
FLCEICGASFTQKGNLLRHIKL | -1.6
FYCNQCGAHFTQKGNLLRHIKL | -0.447
FYCNQCGAQFTQKGNLLRHIKL | -0.323
FYCDVCGAEFTQKGNLLRHIKL | -1.91
FNCPVCGAQFTQKGNLLRHIKL | -0.322
FMCPVCGADFTQKGNLLRHIKL | -1.32
FMCNVCGARFTQKGNLLRHIKL | -0.49
FRCDQCGAFFTQKGNLLRHIKL | -0.469
FGCPICGAQFTQKGNLLRHIKL | -0.201
FNCDVCGAFFTQKGNLLRHIKL | -0.293
FQCEICGHIFTQKGNLLRHIKL | -1.27
FHCEQCGAWFTQKGNLLRHIKL | -1.33
FRCEICGHQFTQKGNLLRHIKL | -1.66
FCCNQCGRVFTQKGNLLRHIKL | 0.0554
FCCDQCGAMFTQKGNLLRHIKL | -1.13
